Results reported in article PMC6919601, “Identification of Plasmodium dipeptidyl aminopeptidase allosteric inhibitors by high throughput screening” (PLoS ONE, 2019).
The campaign covered roughly 110,000 compounds. About 230 (0.21%) showed an effect of 50% or more. The list shows a part of the results.

target: DPAP1 (Plasmodium falciparum, UniProt Q8IIJ9); assay: primary screen, percent inhibition; read by cleavage of a fluorogenic dipeptide substrate; higher = more effect of the substance; set-up: species or system P. falciparum D10 trophozoite lysates; single well
Sequence (Q8IIJ9 whole entry, looked up): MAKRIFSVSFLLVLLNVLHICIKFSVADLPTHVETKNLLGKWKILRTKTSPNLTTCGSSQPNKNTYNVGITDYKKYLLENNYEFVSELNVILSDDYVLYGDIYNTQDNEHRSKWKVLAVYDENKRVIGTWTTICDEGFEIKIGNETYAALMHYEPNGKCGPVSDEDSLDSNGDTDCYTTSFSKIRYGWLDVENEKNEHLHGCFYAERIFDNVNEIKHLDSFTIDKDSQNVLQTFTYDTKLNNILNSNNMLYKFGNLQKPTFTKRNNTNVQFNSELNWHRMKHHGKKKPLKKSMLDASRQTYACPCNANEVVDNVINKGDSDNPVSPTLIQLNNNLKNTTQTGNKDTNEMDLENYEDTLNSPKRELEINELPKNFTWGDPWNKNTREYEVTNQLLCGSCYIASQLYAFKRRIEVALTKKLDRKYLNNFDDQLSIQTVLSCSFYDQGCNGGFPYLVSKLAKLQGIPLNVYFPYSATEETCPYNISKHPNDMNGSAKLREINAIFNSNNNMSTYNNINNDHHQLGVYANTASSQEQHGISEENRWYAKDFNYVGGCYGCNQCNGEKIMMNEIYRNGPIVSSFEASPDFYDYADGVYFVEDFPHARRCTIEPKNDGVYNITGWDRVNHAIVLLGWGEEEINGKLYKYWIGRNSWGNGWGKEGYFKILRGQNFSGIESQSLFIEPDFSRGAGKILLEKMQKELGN
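Also: 30 min substrate incubation versus DMSO and 10 µM JCP410 controls.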

Row | SMILES | % Inhibition @ 10 uM [%]
1 | Cc1ccc(C)c2nc(O)c(CCNS(C)(=O)=O)cc12 | 1.97
2 | N#Cc1c(N)nc2c(c1-c1ccc(F)cc1)CCCC2 | 0.345
3 | COc1ccc(C2=NN(C(C)=O)C(c3ccccc3OCc3ccccc3)O2)cc1 (stereo not shown) | -4.11
4 | CC(C)C[C@H](NC(=O)c1ccc(N2CCOCC2)nc1)C(=O)NCC#N | -9.15
5 | COc1cc2sc(C(=O)O)c(Cl)c2cc1OC | -0.13
6 | Cc1cc(S(=O)(=O)NCc2nc(N)n(S(=O)(=O)c3ccc(F)c(C)c3)n2)ccc1F | -0.447
7 | O=C1C/C(=C/NCCc2ccc(O)cc2)C(=O)N1 | 0.484
8 | CCCCn1c2ccccc2n2cc(-c3ccccc3)nc12 | 0.177
9 | CCOC(=O)C1=C(C)OC(N)=C(C#N)C1c1ccc(F)cc1 (stereo not shown) | 1.27
10 | N#CCNC(=O)[C@H](CS(=O)(=O)Cc1ccccc1)NC(=O)c1ccc(C(=O)c2ccccc2)cc1 | -6.98
11 | CC1=C(C(=O)OCC2CCCCC2)C(c2ccc(Br)cc2)CC(=O)N1 (stereo not shown) | 5.32
12 | N#CCNC(=O)C(Cc1ccc(-n2cccc2)cc1)NC(=O)OCc1ccccc1 (stereo not shown) | -2.02
13 | CCOC(=O)c1c(NC(=O)c2cc(-c3ccc4c(c3)OCO4)on2)sc2c1CCCC2 | -6.45
14 | COc1ccc2c(c1)c(C(=O)CN1CCCCC1)c(C)n2C | -3.41
15 | Cc1sc(NC(=O)c2ccccc2Br)c(C(N)=O)c1C | 16.3
16 | COc1ccccc1N1CCN(C2CCN(C(C)=O)CC2)CC1 | -1.75
17 | Cc1ccc(C(=O)Nc2cc(C(F)(F)F)ccc2Cl)cc1[N+](=O)[O-] | 7.04
18 | Cc1ccc2c(=O)cc(C(=O)Nc3sc4c(c3C(N)=O)CCCC4)oc2c1C | 3.31
19 | CCN(CC)Cc1csc2ccc(Br)cc12 | -6.34
20 | Cc1ccc2onc(CC(=O)NCCN3CCN(C)CC3)c2c1 | 2.07
21 | CC1(C)CC(=O)C2=C(C1)OC1=C(C(=O)CC(C)(C)C1)C21C(=O)Nc2ccccc21 | -3.5

Row | SMILES | % Inhibition @ 10 uM [%]
22 | CC(C)(C)C(=O)NCCCc1nc2ccccc2[nH]1 | 5.4
23 | COc1ccc(-n2c(=S)[nH]c3c(c2=O)C2(CCCC2)Cc2ccccc2-3)cc1 | -4.23
24 | CC(C)CNC(=O)CN(C1CCCCC1)S(=O)(=O)c1ccc(F)cc1 | 0.389
25 | Cc1cc(C)cc(-n2nnc(-c3nsc(NC(=O)c4ccccc4)n3)c2C)c1 | -7.24
26 | O=C(CN(Cc1ccccc1)S(=O)(=O)c1ccc(Br)cc1)NCC1CCCO1 (stereo not shown) | 2.46
27 | O=C(Nc1nc2ccc(Br)cc2s1)C1CC2CCC1C2 (stereo not shown) | -2.37
28 | N#Cc1c(NC(=S)NC(=O)/C=C/c2ccccc2)sc2c1CCC2 | 3.32
29 | Cc1cc2ncc(S(=O)(=O)c3ccccc3)c(-c3ccc(Cl)cc3)n2n1 | -3.13
30 | CCOC(=O)N1CCN(C(=O)CSc2cn(Cc3ccccc3C)c3ccccc23)CC1 | 1.91
31 | COc1cc2c(cc1OC)C(COc1ccc(F)cc1)N(C(=O)c1ccc3c(c1)OCO3)CC2 (stereo not shown) | 1.91
32 | O=C(N/N=C/c1ccccc1O)NC12CC3CC(CC(C3)C1)C2 | 20.4
33 | Clc1ccc(-c2nnn3c2nc(NCc2ccco2)c2ccccc23)cc1 | -6.52
34 | O=C(O)c1ccccc1NC(=O)c1cc(Cl)c(Cl)cc1C(=O)O | -5.67
35 | N=C1/C(=C\c2cccn2CCCOc2ccccc2)C(=O)N=C2SC(N3CCCC3)=NN12 | -1.66
36 | CN1C(=O)S/C(=C\c2ccccc2OCc2ccccc2F)C1=O | -1.48
37 | CC(=O)NCCCc1nc2ccccc2n1Cc1ccccc1C | 0.121
38 | Cc1cc(C)c2c(n1)SCC(=O)N2CCCC(=O)NCCN(C)C | -2.37
39 | O=[N+]([O-])c1ccc(N2CCN(Cc3cccnc3)CC2)cc1 | 3.25
40 | Cc1nc2sc3c(c2c(=O)o1)CCC3 | -5.35
41 | Nc1ccc(C(=O)Nc2ccccc2C(=O)O)c(C(=O)O)c1 | 1.9
42 | CC(C)N(Cc1ccccc1)S(=O)(=O)c1ccc2[nH]c3c(c2c1)CCCC3 | 4.19

Row | SMILES | % Inhibition @ 10 uM [%]
43 | COc1ccc(-n2nnnc2C2CCN(S(=O)(=O)c3ccc(-n4cnnn4)c(OC)c3)CC2)cc1 | -3.49
44 | CC(c1ccccc1)C1C(C#N)=C(N)Oc2c1c(=O)oc1ccccc21 (stereo not shown) | 1.13
45 | COc1ccc(/C=C(\C#N)C(=O)NCc2ccco2)cc1 | -5.92
46 | C=C(C)CC1NC2CC(C)(C)C1c1c(Br)cccc12 (stereo not shown) | -2.45
47 | CCCC1CCc2c(sc(NC(=O)C(F)(F)F)c2C(N)=O)C1 (stereo not shown) | 2.45
48 | CC1(C)CC(=O)C2=C(C1)NC(=O)CC2c1ccsc1 (stereo not shown) | -0.396
49 | COc1ccc(C(O)(c2ccccc2)C(CN2CCOCC2)c2ccc(Cl)cc2)cc1 (stereo not shown) | 1.67
50 | CCn1nc(C)c(NC(=O)c2cnn3c(C(F)F)cc(-c4ccc(OC)cc4)nc23)c1C | -1.72
51 | CCCCOc1ccc(C2C(=O)N(C3CCCCC3)CC(=O)N2CC2CCCO2)cc1 (stereo not shown) | 2.79
52 | COc1cc(C2c3c(-c4ccccc4O)n[nH]c3C(=O)N2CCO)ccc1OCCC(C)C (stereo not shown) | 8.13
53 | CC(Nc1oc(COc2ccccc2)nc1C#N)c1ccccc1 (stereo not shown) | 1.35
54 | C/C=C(\C)CN1CCN(C/C=C/c2ccccc2)CC1 | 0.0792
55 | CC1=C(C(N)=O)C(c2ccc(O)cc2)n2nc(SCc3ccccc3Cl)nc2N1 (stereo not shown) | 8.32
56 | COc1ccc(C2C=C(c3ccc(Cl)cc3)Nc3ncnn32)c(OC)c1OC (stereo not shown) | -5.19
57 | O=S(=O)(c1cccc2nsnc12)N1CCN(Cc2ccccc2)CC1 | -3.72
58 | CCOC(=O)c1sc2nc3c(cc2c1NC(=O)c1ccccc1)COC(C)(C)C3 | -2.65
59 | CC[C@H](C)[C@H](NC(=O)N1CCN(C)CC1)C(=O)N[C@@H](CCc1ccccc1)C(=O)CO | -4.82
60 | CC1CCN(S(=O)(=O)c2ccc3c(ccn3CC(=O)NCc3ccc(OC(C)C)cc3)c2)CC1 | 0.00226
61 | CS(=O)(=O)N(CC(=O)Nc1ccc(S(=O)(=O)N2CCOCC2)cc1)c1cccc(F)c1 | 2.65
